# Data as given in PubChem BioAssay AID1645882 (National Center for Advancing Translational Sciences (NCATS), 2021).
# Several values for one entry are separate records, joined by “and”; a condition that tells them apart may be missing. Identical values can stand only once. Hit rate of the full screen: of about 16,000 compounds, about 120 (0.75%) were called active. Roughly 4% stayed inconclusive and do not appear here. Calls come from the whole dose curve; as a rule, active = well fitted inhibition curve with a large enough effect; inconclusive = small, poorly fitted or top-dose-only effect; inactive = no such curve, though single readings can be large or run the other way. Some of the results follow.
# Target: Rap guanine nucleotide exchange factor 3 (Homo sapiens) (UniProt O95398)
# Test: Validation qHTS for antagonist of cAMP-regulated guanine nucleotide exchange factor 3 (EPAC1); note: nearly all actives have a fitted effect of over 75% in size
# Conditions: EPAC1 Rap1B-BODIPY-GDP exchange, fluorescence; series mostly up to 150 µM; activity change, negative = inhibition: at the top concentration
# In short: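 EPAC1 (100 nM) mixed with 250 nM RAP1B-BODIPY-GDP and 50 uM GDP; compounds in concentration series, 5 min at room temperature. Fluorescence (ex 480/em 540 nm) read every 5 min for 30 min; normalized to ATA control and DMSO.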
# Potency is the fitted concentration of half-maximal effect.
# UniProt O95398, sequence (O95398 whole entry, looked up): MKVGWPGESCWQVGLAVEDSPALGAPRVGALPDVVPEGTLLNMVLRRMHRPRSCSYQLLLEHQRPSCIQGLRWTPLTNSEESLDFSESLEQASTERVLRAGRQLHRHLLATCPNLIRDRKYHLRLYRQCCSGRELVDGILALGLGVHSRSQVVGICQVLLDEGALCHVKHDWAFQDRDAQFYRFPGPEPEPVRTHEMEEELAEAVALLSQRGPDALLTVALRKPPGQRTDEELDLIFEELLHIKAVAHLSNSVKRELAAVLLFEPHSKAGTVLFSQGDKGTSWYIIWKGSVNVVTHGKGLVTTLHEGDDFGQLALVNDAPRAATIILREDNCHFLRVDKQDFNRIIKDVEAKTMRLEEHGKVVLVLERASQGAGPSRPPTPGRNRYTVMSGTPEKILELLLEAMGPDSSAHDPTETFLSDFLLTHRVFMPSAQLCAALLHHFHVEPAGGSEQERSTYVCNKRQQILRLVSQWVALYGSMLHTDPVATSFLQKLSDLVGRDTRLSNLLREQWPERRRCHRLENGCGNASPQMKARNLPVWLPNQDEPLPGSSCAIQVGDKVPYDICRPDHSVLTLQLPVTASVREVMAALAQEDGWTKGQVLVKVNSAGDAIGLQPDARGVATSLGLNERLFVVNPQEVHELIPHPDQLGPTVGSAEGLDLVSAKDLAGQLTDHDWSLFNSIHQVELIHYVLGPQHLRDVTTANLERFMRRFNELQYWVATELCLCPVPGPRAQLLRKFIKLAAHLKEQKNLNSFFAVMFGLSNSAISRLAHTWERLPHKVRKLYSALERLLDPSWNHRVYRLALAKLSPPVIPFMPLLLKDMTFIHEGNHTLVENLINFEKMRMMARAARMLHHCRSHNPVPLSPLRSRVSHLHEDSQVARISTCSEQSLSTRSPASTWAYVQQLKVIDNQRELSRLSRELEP
SMILES,"activity change, negative = inhibition",Potency
COc1ccccc1CCn1c(=O)c(-c2cc(F)cc(F)c2)nc2cncnc21,inactive: 15.7%,
N#CCCn1c(=O)c(-c2cccs2)nc2cnc(Nc3ccccc3)nc21,inactive: 48.5%,
Cc1cc(C)nc(NS(=O)(=O)c2ccc(N)cc2)n1,inactive,
CS(=O)(=O)Nc1cccc(-c2ccc3ncnc(NC4CCNCC4)c3c2)c1,inactive: 27.3%,
CN1CCC(=O)N([C@H](COc2ccccc2)Cc2ccccc2)CC1,inactive: 7.61%,
C=C1CC[C@H](O)CC1=C/C=C1\CCC[C@]2(C)[C@@H]([C@H](C)CC[C@@H](O)C(C)(C)O)CC[C@@H]12,inactive: -9.82%,
COCCn1c(=O)c(-c2ccc(Cl)cc2)nc2cnc(OC)nc21,inactive: 4.87%,
FC(F)(F)c1ccccc1-c1cc(NCc2cccnc2)ncn1,inactive: 8.23%,
Cn1cc(C(F)(F)F)nc1-c1ccc(OCC(O)CNCCOc2ccc(O)c(C(N)=O)c2)cc1 (stereo not given),inactive,
CN1CCN2c3ncccc3Cc3ccccc3C2C1 (stereo not given),inactive,
COc1ccccc1CN1CCC2(CC1)CCN(C(=O)c1ccncc1)CC2,inactive: 15.9%,
C[C@@H]1C/C=C/C=C/C=C/C=C/[C@H](O[C@@H]2O[C@H](C)[C@@H](O)[C@H](N)[C@@H]2O)C[C@@H]2O[C@](O)(C[C@@H](O)C[C@H]3O[C@@H]3/C=C/C(=O)O1)C[C@H](O)[C@H]2C(=O)O,inactive: 1.38%,
COc1ccc(SC[C@H](C)CN2CC[C@H](NC(=O)OCc3ccccc3)CCC2=O)cc1,inactive: -19.9%,
CN1CCN(c2nc(-c3ccc4c(c3)OCO4)nc3ccccc23)CC1,inactive: -10.3%,
CN1CCN(c2ncc3nc(-c4ccccc4)c(=O)n(CCC#N)c3n2)CC1,inactive: 5.83%,
CC(C(O)c1ccc(O)cc1)N1CCC(Cc2ccccc2)CC1 (stereo not given),inactive,
CN(Cc1ccccc1)Cc1ccccc1,inactive: 12.1%,
CCCCCCCCCCCCCCCC(=O)N[C@@H](COP(=O)(O)O)C(=O)O,inactive: 15.3% [at 15.3 µM],
O=c1ccn([C@@H]2O[C@H](COP(=O)(O)OP(=O)(O)O)[C@@H](O)[C@H]2O)c(=O)[nH]1,inactive,
O=c1cc(-c2ccccc2)oc2ccccc12,inactive: 15% [at 320 µM],
COCc1c(C(=O)N2CCCCC2c2cccnc2)cnn1-c1ncc2c(n1)-c1ccccc1CCC2 (stereo not given),inactive: 21.1%,
Cc1ccc(OCC(O)C(C)NC(C)C)c2c1CCC2 (stereo not given),inactive: -15%,
CN(C)c1ncc2nc(-c3cccc(C#N)c3)c(=O)n(C)c2n1,inactive: 17.4%,
CCCn1c(=O)c(C)cn2nc(N)nc12,inactive,
c1ccc2cc(C3=NCCN3)ncc2c1,inactive: 23.3%,

SMILES,"activity change, negative = inhibition",Potency
COCCn1c(=O)cnc2cnc(N3CCNCC3)nc21,inactive: 9.77%,
O=C(c1csnn1)N1CCC[C@@]2(CCN(Cc3cc(C(F)(F)F)cc(C(F)(F)F)c3)C2)C1,inactive: 1.84%,
O=C(O)C1=CC(=C(c2ccc(O)c(C(=O)O)c2)c2ccc(O)c(C(=O)O)c2)C=CC1=O,,active: 56.2 µM and active: 1.58 µM
COc1cc(SC)ccc1C(=O)N1CCC(Cc2ccccc2)CC1,inactive: -23.2% [at 75.8 µM],
CC(=O)Nc1ccccc1-c1nc(CNC(=O)c2ccc(Cl)cc2)c(C)o1,inactive: 6.58%,
Cn1cccc1C(=O)N1CCC2(CC1)CN(Cc1ccc(C#N)cc1)C2,inactive: 11.7%,
N#CCCn1c(=O)cnc2cnc(Oc3cccc(Cl)c3)nc21,inactive: 1.48%,
Cn1c(CCNC(=O)C2CC23CCN(C(=O)C2=CCCC2)CC3)nc2ccccc21 (stereo not given),inactive: 20.1%,
CC#C[C@]1(O)CC[C@H]2[C@@H]3CCC4=CC(=O)CCC4=C3[C@@H](c3ccc(N(C)C)cc3)C[C@@]21C,inactive,
Cc1csc(CN(C)C(=O)c2sc3ncnc(NCC4CCCO4)c3c2C)n1 (stereo not given),inactive: 7.98%,
COc1ccc(C(=O)N2CCC3(CC2)CCN(c2ccccn2)CC3)cc1,inactive: -2.75%,
C[C@H]1NCc2cc(-c3ccc4c(=O)c(C(=O)O)cn(C5CC5)c4c3OC(F)F)ccc21,inactive: 19.3%,
C[N+]1(CC2COC(c3ccccc3)(c3ccccc3)O2)CCCCC1 (stereo not given),inactive: 24.7%,
O=C(C[N+]1(c2ccccc2)CCOCC1)c1ccccc1,inactive: 13.6%,
Cc1ccc2c(c1)CC[C@H]1CC(=O)CC[C@@]21C,inactive: 4.99%,
CC(c1ccc(N(C)C)cc1)c1ccnc2ccccc12 (stereo not given),inactive: -1.54%,
Cc1cc(C(=O)Nc2cccc(-c3nc(CNC(=O)c4sc(C)nc4C)c(C)o3)c2)c(C)o1,inactive: 18.1%,
Cc1c(C(=O)N2CCOc3ccc(Cl)cc3C2)sc2ncnc(NCCc3ccccn3)c12,inactive: 11.2%,
CC[C@@H]1[C@H]2CCCC(=O)N3CC[C@@H](C[C@@H]1OC(=O)NCc1ccccc1)[C@@H]23,inactive: -11%,
COc1ccc(Cl)cc1C(=O)NCCc1ccc(S(=O)(=O)NC(=O)NC2CCCCC2)cc1,inactive,
Nc1nc(=O)n([C@@H]2CS[C@H](CO)O2)cc1F,inactive: 6.72%,
O=C(c1cccc(F)c1)N1CCC2(CC1)CCN(c1ccccc1)CC2,inactive: 8.57%,
NC(N)=NCCCC(NC(=O)C(N)Cc1ccc(O)cc1)C(=O)O (stereo not given),inactive: 19.2%,
COc1cc(CNC(=O)c2cnn(-c3ncc4c(n3)-c3ccccc3CC4)c2C)cc(OC)c1OC,inactive: 13.4%,
COc1ccc(-c2nc3cnc(N4CCN(C)CC4)nc3n(C)c2=O)cc1,inactive: 8.08%,
